Out of some 340,000 compounds screened, about 12,000 (3.5%) were called active. The shares of active, inactive and inconclusive entries below differ from those in the screen. Calls come from the whole dose curve; as a rule, active = well fitted inhibition curve with a large enough effect; inconclusive = small, poorly fitted or top-dose-only effect, or another doubt; inactive = no such curve, though single readings can be large or run the other way. No potency is given beside an inconclusive call; the fits are too rough.
Experiment: qHTS Assay for Inhibitors of Hepatitis C Virus (HCV)
Settings: Huh7.5.1 HCVcc-Cre (HCVcc is cell-culture hepatitis C virus) infection, luciferase reporter, 44 h; series mostly up to 41.8 µM
Method in brief: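 Compounds are dispensed onto cells plated 4 h earlier at 1,000 per well, with HCVcc-Cre virus (about 0.5 moi) added next. Following 44 h of culture, luminescent signal is measured for 15 sec after 15 min with substrate at room temperature.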
Potency is the fitted concentration of half-maximal effect; tags give direction and shape of the fitted curve.

Structure (SMILES) | Potency
COc1ccc(S(=O)(=O)N2CCCCCC2)cc1NC(=O)Cc1ccccc1 | inactive
CCCCCCCNC(=O)C1(CC2CC(c3cccc(Br)c3)=NO2)CCN(C(=O)C2(C)CC2)CC1 (stereo unspecified) | inactive
CCn1c(CCc2ccccc2)n[nH]c1=S | inactive
O=C(COc1ccc(Br)cc1CO)Nc1ccc(F)cc1 | inconclusive [inhibitor, partial curve]
CCCNC(=O)C1CC(=O)N(c2ccc(OCc3ccc(Cl)cc3)cc2)C1 (stereo unspecified) | inconclusive [inhibitor, single point]
COc1ccc([N+](=O)[O-])cc1N(CC(=O)N1CCN(Cc2ccccc2)CC1)S(C)(=O)=O | inactive
Cc1ccc(N2CCN(/N=C/c3sccc3C)CC2)cc1 | inactive
COc1ccc(CCNc2ccc(N3C(=O)CC(C)C3=O)cc2[N+](=O)[O-])cc1OC (stereo unspecified) | inconclusive [inhibitor, single point]
Cc1ccc(NC(=O)C2C(c3ccccc3)C2(Cl)Cl)c(C)c1 (stereo unspecified) | inconclusive [inhibitor, partial curve]
Cc1cccc(NC(=S)N/N=C2\CC(C)(C)Oc3ccc(O)cc32)c1 | inconclusive [inhibitor, partial curve]
O=C(CN1CCN(c2ccc(O)cc2)CC1)Nc1ccc2c(c1)OCCCO2 | active: 6.31 µM
COc1cccc(CNCCNC(=O)c2nonc2N)c1 | inconclusive [inhibitor, single point]
C=CCn1c(O)c(C(C)=NCc2cc(OC)cc(OC)c2)c(=O)[nH]c1=O | inconclusive [inhibitor, single point]
CCCCCCn1c(NCC)nc2c1c(=O)n(C)c(=O)n2C | active: 5.62 µM
c1ccc(CN2CCC(CNc3ncnc4ccccc34)C2)cc1 (stereo unspecified) | inconclusive [inhibitor, partial curve]
CCc1c(C)c2ccc(O)c(CN3CCCC3)c2oc1=O | inactive
COc1cc2ccccc2cc1C(=O)Nc1ccccc1N1CCCC1 | inconclusive [inhibitor, partial curve]
N#CCCCC#Cc1ccc2c(c1)COc1c3ccccc3nn1-2 | inconclusive [inhibitor, partial curve]
CN(C)CCNC(=O)c1ccc(Cl)c2cc3ccccc3nc12 | inconclusive [inhibitor, partial curve]
COc1cc2ccccc2cc1C(=O)Nc1ccc(N2CCN(C(=O)C(C)C)CC2)cc1 | active: 10 µM
Cc1ccccc1CN1C2=NCCCN2c2ccccc21 | inconclusive [inhibitor, partial curve]
Cc1ccc(C)c(OCCNc2ccc([N+](=O)[O-])cn2)c1 | inconclusive [inhibitor, partial curve]
COc1ccc(OC)c(NC(=O)CS(=O)(=O)Cc2nc(-c3ccccc3C)oc2C)c1 | inconclusive [inhibitor, partial curve]
O=C(NN=Cc1cccc([N+](=O)[O-])c1)c1cc(-c2cccnc2)nc2ccccc12 | inconclusive [inhibitor, single point]

Structure (SMILES) | Potency
CCOc1ccccc1OCCOCCOc1ccccc1[N+](=O)[O-] | inconclusive [inhibitor, single point]
N#C/C(=C\C1CC=CCC1)c1nc2ccccc2[nH]1 (stereo unspecified) | inconclusive [inhibitor, partial curve]
CCOC(=O)c1c(C)[nH]c(C)c1-c1ccccc1OC | inactive
O/N=C/c1ccccc1OCc1ccc(Cl)cc1 | inconclusive [inhibitor, single point]
Cc1ccc(C(=O)/C=C/c2ccccc2[N+](=O)[O-])cc1 | inconclusive [inhibitor, single point]
O=C(c1cc2nc(-c3ccco3)cc(C(F)(F)F)n2n1)N1CCN(c2ccccc2)CC1 | inconclusive [inhibitor, partial curve, poor fit]
C=CCN1c2ccccc2[C@]23C[C@@H](C(=O)OC)N(C(=O)NCCC)C2=NC(C(=O)OC)=C(C(=O)OC)[C@H]13 | inconclusive [inhibitor, single point]
O=C(N/N=C/c1cn(CC(=O)N2CCOCC2)c2ccccc12)c1cccnc1 | inactive
COC(=O)C1=C(c2ccc(OC)c(OC)c2)C[C@@H]2CC[C@H]1N2C(=O)N1CCc2cc(OC)c(OC)cc2C1 | inactive
CC(=O)Nc1ccc(OCC(O)CN2CCN(c3ccccc3Cl)CC2)cc1 (stereo unspecified) | inactive
COc1ccc(O)c(C(=O)CC(=O)c2ccccc2C)c1 | inconclusive [inhibitor, full curve]
Cc1ccc2c(CN3CCN(S(=O)(=O)c4ccccc4C(F)(F)F)CC3)cc(=O)oc2c1C | inconclusive [inhibitor, partial curve]
COC(=O)c1sc2nc(CN3CCOCC3)nc(N3CCOCC3)c2c1C | inconclusive [inhibitor, single point]
CC1C(=O)N2CCCc3cc(NC(=O)C(=O)NCCN4CCOCC4)cc1c32 (stereo unspecified) | inactive
N#Cc1cc2ccccc2nc1SCc1ccccn1 | inconclusive [inhibitor, single point]
O=C(Cn1cc([N+](=O)[O-])cn1)NCc1cc2ccccc2[nH]1 | inactive
Cc1nn(Cc2ccc(Cl)c(Cl)c2)c(C)c1NC(=O)c1noc2c1CCCCC2 | inactive
CCOC(=O)C(NC(=O)c1ccccc1)(OCC1(CC)COC1)C(F)(F)F (stereo unspecified) | inactive
S=C1NC2=C(CCC/C2=C\c2ccccc2)C(c2ccccc2)N1 (stereo unspecified) | inconclusive [inhibitor, single point]
COc1ccc(CCC(=O)Nc2ccc(-c3noc(-c4ccc(OC)c(OC)c4)n3)cc2)cc1 | inactive
CCCCCCn1c(SCC(=O)c2c(N)n(C)c(=O)n(C)c2=O)nc2ccccc21 | inconclusive [inhibitor, partial curve]
CCOC(=O)c1ccc(N2C(=O)C=CC2=O)cc1 | inconclusive [inhibitor, single point]
O=C(Nc1ccc(Cl)c(Cl)c1)N1CCSC1c1ccco1 (stereo unspecified) | inconclusive [inhibitor, single point]
CCOc1ccc(C(=O)NCC(=O)NC(C)c2ccc(-n3ccnc3)cc2)cc1OCC (stereo unspecified) | inconclusive [inhibitor, single point]

Structure (SMILES) | Potency
CSc1nc2c(cc1C#N)C(=O)CC(C)(C)C2 | inactive
COc1ccc2cc(C(c3nnnn3C(C)(C)C)N3CCc4ccccc4C3)c(=O)[nH]c2c1 (stereo unspecified) | inconclusive [inhibitor, single point]
Cc1noc(C)c1COC(=O)c1cccnc1Cl | inactive
O=C(CSc1nc2sc3c(c2c(=O)n1-c1ccccc1)CCCC3)N/N=C/c1ccccc1C(=O)O | inactive
Cc1ccccc1C(=O)Nc1ccnn1C1CCN(C(=O)c2cnsn2)CC1 | inactive
COc1ccccc1/C=C/C=N/NC(=O)CCn1cnc2ccccc21 | inconclusive [inhibitor, partial curve]
CC(C)COn1c(=S)[nH]c2ccccc2c1=O | inactive
COc1ccc(C(=O)NCCn2cc(SCC(=O)NCC3CCCO3)c3ccccc32)cc1OC (stereo unspecified) | inconclusive [inhibitor, partial curve]
O=C1NC2(CCSC2)C(=O)N1CC(=O)N(Cc1ccccc1)C1CCS(=O)(=O)C1 (stereo unspecified) | inactive
Cc1cc(OCCCCCNCCO)ccc1Cl | inconclusive [inhibitor, partial curve]
O=C(Nc1ccccc1N1CCCCC1)c1ccc(Cl)cc1 | inconclusive [inhibitor, partial curve]
CC(=O)c1ccc(OCc2cc(C(=O)N3CC4C[C@@H]5CC3C[C@H](C4)C5)no2)cc1 | inconclusive [inhibitor, full curve, poor fit]
COc1ccc(CNC(=O)c2cc(C3CC3)nc3c2cnn3C(C)C)cc1 | active: 2.24 µM
Cc1ccccc1CN1CCN(C(=O)c2ccc(S(=O)(=O)NCc3ccco3)cc2)CC1 | inconclusive [inhibitor, partial curve]
CC(C)Cn1c(/C=N/Nc2nc3ccccc3[nH]2)nc2ccccc21 | active: 2.51 µM
CSc1ccc(CN2CCN(Cc3ccccc3Cl)CC2)cc1 | inconclusive [inhibitor, single point]
CC(=O)N(Cc1c(C)nn(-c2ccccc2)c1Cl)c1ccc(Cl)cc1 | inconclusive [inhibitor, single point]
CCOc1ccccc1OCCCC(=O)NC1=NCCS1 | inconclusive [inhibitor, single point]
O=C(Cn1cc(C(=O)c2ccccc2F)c2ccccc21)NCc1ccco1 | inconclusive [inhibitor, single point]
CCOC(=O)C1CCCN(C2=C(NS(=O)(=O)c3ccc(Br)cc3)C(=O)c3ccccc3C2=O)C1 (stereo unspecified) | inconclusive [inhibitor, partial curve]
O=C(/C=C/c1ccccc1[N+](=O)[O-])c1ccccc1Br | inconclusive [inhibitor, single point]
CCC(C)(C)n1nnnc1CN1CCN(c2nc3ccc(C)cc3cc2C#N)CC1 | inconclusive [inhibitor, partial curve]
CC(C)N(C(=O)CSc1ccc(S(=O)(=O)N2CCCCC2)cn1)c1ccccc1 | inconclusive [inhibitor, single point]
